Results published in PMC12820563.
The list shows a part of the results. The list includes weakly bound sequences.

target: T1, MBP-FoxP3dN (UniProt Q99JB6); assay: PD-seq (MBP pull-down with sequencing); details: 20 mM Tris-HCl pH 7.5, 100 mM NaCl, 1.5 mM MgCl2, 0.4 uM protein, 0.1 uM dsDNA library, 30 min, room temperature, amylose pull-down; high values mean tight binding; double strand, one strand shown
T1 sequence: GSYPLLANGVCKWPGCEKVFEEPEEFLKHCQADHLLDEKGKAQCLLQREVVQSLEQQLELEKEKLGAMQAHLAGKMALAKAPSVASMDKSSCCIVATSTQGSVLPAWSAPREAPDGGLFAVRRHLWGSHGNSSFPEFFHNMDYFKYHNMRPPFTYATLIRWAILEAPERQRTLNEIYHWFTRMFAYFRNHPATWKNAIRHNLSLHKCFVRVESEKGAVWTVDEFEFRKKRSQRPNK

Row | Sequence | binding signal (RPM ratio (pull-down/input))
1 | GATGATTGTTCTCCCAGCTGATGAATTTGCGGCTTCGAGTAAACAAATTTTCCTAATCTTTCTGTTCAAGCGCCATCTAC | 0.833
2 | GATGATTGTTCTCCCAGCTGATGAATTAGGTTTTTCGAGTAAACAAATTTTCCTAATCTTTCTGTTCAAGCGCCATCTAC | 1.51
3 | GATGATTGTTCTCCCAGCTGATGAATTGCAATTCTCGAGTAAACAAATTTTCCTAATCTTTCTGTTCAAGCGCCATCTAC | 1.76
4 | GATGATTGTTCTCCCAGCTGATGAATTCGATCAGTCGAGTAAACAAATTTTCCTAATCTTTCTGTTCAAGCGCCATCTAC | 0.29
5 | GATGATTGTTCTCCCAGCTGATGAATTTGACTACTCGAGTAAACAAATTTTCCTAATCTTTCTGTTCAAGCGCCATCTAC | 0.767
6 | GATGATTGTTCTCCCAGCTGATGAATTTCTTAGCTCGAGTAAACAAATTTTCCTAATCTTTCTGTTCAAGCGCCATCTAC | 0.342
7 | GATGATTGTTCTCCCAGCTGATGAATTGCTAGTGTCGAGTAAACAAATTTTCCTAATCTTTCTGTTCAAGCGCCATCTAC | 0.949
8 | GATGATTGTTCTCCCAGCTGATGAATTTCTTGTGTCGAGTAAACAAATTTTCCTAATCTTTCTGTTCAAGCGCCATCTAC | 1.59
9 | GATGATTGTTCTCCCAGCTGATGAATTGCGCACCTCGAGTAAACAAATTTTCCTAATCTTTCTGTTCAAGCGCCATCTAC | 2.12
10 | GATGATTGTTCTCCCAGCTGATGAATTTTTAAGCTCGAGTAAACAAATTTTCCTAATCTTTCTGTTCAAGCGCCATCTAC | 0.165
11 | GATGATTGTTCTCCCAGCTGATGAATTGAAATTCTCGAGTAAACAAATTTTCCTAATCTTTCTGTTCAAGCGCCATCTAC | 0.366
12 | GATGATTGTTCTCCCAGCTGATGAATTTCAATCATCGAGTAAACAAATTTTCCTAATCTTTCTGTTCAAGCGCCATCTAC | 0.558
13 | GATGATTGTTCTCCCAGCTGATGAATTGACTATGTCGAGTAAACAAATTTTCCTAATCTTTCTGTTCAAGCGCCATCTAC | 0.449
14 | GATGATTGTTCTCCCAGCTGATGAATTGCTGCACTCGAGTAAACAAATTTTCCTAATCTTTCTGTTCAAGCGCCATCTAC | 1.03
15 | GATGATTGTTCTCCCAGCTGATGAATTCCGCAGATCGAGTAAACAAATTTTCCTAATCTTTCTGTTCAAGCGCCATCTAC | 0.352
16 | GATGATTGTTCTCCCAGCTGATGAATTGCGTTAGTCGAGTAAACAAATTTTCCTAATCTTTCTGTTCAAGCGCCATCTAC | 1.6
17 | GATGATTGTTCTCCCAGCTGATGAATTCGCGTACTCGAGTAAACAAATTTTCCTAATCTTTCTGTTCAAGCGCCATCTAC | 1.1
18 | GATGATTGTTCTCCCAGCTGATGAATTTTGTTACTCGAGTAAACAAATTTTCCTAATCTTTCTGTTCAAGCGCCATCTAC | 3.84
19 | GATGATTGTTCTCCCAGCTGATGAATTAGTGCGATCGAGTAAACAAATTTTCCTAATCTTTCTGTTCAAGCGCCATCTAC | 0.851
20 | GATGATTGTTCTCCCAGCTGATGAATTTATCGAATCGAGTAAACAAATTTTCCTAATCTTTCTGTTCAAGCGCCATCTAC | 0.374

Row | Sequence | binding signal (RPM ratio (pull-down/input))
21 | GATGATTGTTCTCCCAGCTGATGAATTTCCCTTGTCGAGTAAACAAATTTTCCTAATCTTTCTGTTCAAGCGCCATCTAC | 0.286
22 | GATGATTGTTCTCCCAGCTGATGAATTGGCCCTTTCGAGTAAACAAATTTTCCTAATCTTTCTGTTCAAGCGCCATCTAC | 0.366
23 | GATGATTGTTCTCCCAGCTGATGAATTAGACGCTTCGAGTAAACAAATTTTCCTAATCTTTCTGTTCAAGCGCCATCTAC | 0.539
24 | GATGATTGTTCTCCCAGCTGATGAATTTACTACGTCGAGTAAACAAATTTTCCTAATCTTTCTGTTCAAGCGCCATCTAC | 0.515
25 | GATGATTGTTCTCCCAGCTGATGAATTAAAGCCCTCGAGTAAACAAATTTTCCTAATCTTTCTGTTCAAGCGCCATCTAC | 0.498
26 | GATGATTGTTCTCCCAGCTGATGAATTCATAATGTCGAGTAAACAAATTTTCCTAATCTTTCTGTTCAAGCGCCATCTAC | 0.441
27 | GATGATTGTTCTCCCAGCTGATGAATTCGGTACTTCGAGTAAACAAATTTTCCTAATCTTTCTGTTCAAGCGCCATCTAC | 0.575
28 | GATGATTGTTCTCCCAGCTGATGAATTCGATATTTCGAGTAAACAAATTTTCCTAATCTTTCTGTTCAAGCGCCATCTAC | 1.79
29 | GATGATTGTTCTCCCAGCTGATGAATTCGCTTTTTCGAGTAAACAAATTTTCCTAATCTTTCTGTTCAAGCGCCATCTAC | 1.75
30 | GATGATTGTTCTCCCAGCTGATGAATTCGTCGGATCGAGTAAACAAATTTTCCTAATCTTTCTGTTCAAGCGCCATCTAC | 0.259
31 | GATGATTGTTCTCCCAGCTGATGAATTAATCCAGTCGAGTAAACAAATTTTCCTAATCTTTCTGTTCAAGCGCCATCTAC | 0.17
32 | GATGATTGTTCTCCCAGCTGATGAATTTTTGGTCTCGAGTAAACAAATTTTCCTAATCTTTCTGTTCAAGCGCCATCTAC | 0.351
33 | GATGATTGTTCTCCCAGCTGATGAATTCTTTAGATCGAGTAAACAAATTTTCCTAATCTTTCTGTTCAAGCGCCATCTAC | 0.255
34 | GATGATTGTTCTCCCAGCTGATGAATTGTAACCCTCGAGTAAACAAATTTTCCTAATCTTTCTGTTCAAGCGCCATCTAC | 0.553
35 | GATGATTGTTCTCCCAGCTGATGAATTTAATGGTTCGAGTAAACAAATTTTCCTAATCTTTCTGTTCAAGCGCCATCTAC | 2.17
36 | GATGATTGTTCTCCCAGCTGATGAATTTAAGCCTTCGAGTAAACAAATTTTCCTAATCTTTCTGTTCAAGCGCCATCTAC | 1.91
37 | GATGATTGTTCTCCCAGCTGATGAATTCTTATTGTCGAGTAAACAAATTTTCCTAATCTTTCTGTTCAAGCGCCATCTAC | 1.04
38 | GATGATTGTTCTCCCAGCTGATGAATTCTAGGTCTCGAGTAAACAAATTTTCCTAATCTTTCTGTTCAAGCGCCATCTAC | 0.369
39 | GATGATTGTTCTCCCAGCTGATGAATTTTGCAGCTCGAGTAAACAAATTTTCCTAATCTTTCTGTTCAAGCGCCATCTAC | 3.37
40 | GATGATTGTTCTCCCAGCTGATGAATTCACAGCTTCGAGTAAACAAATTTTCCTAATCTTTCTGTTCAAGCGCCATCTAC | 0.314
